The full ranking holds about 110,000 compounds; the median of “z-score” is about -0.1, and the highest 2% start at about 2. This is one part of the list. Activity calls are given as the source filed them.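 The calls were made as follows: active = z-score in the third read window above 3 or below -3; inactive = the rest.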

The target of this experiment is Metabotropic glutamate receptor 8 (Rattus norvegicus) (UniProt P70579). Nature of the experiment: rat mGluR8 modulators via GIRK flux, primary screen, cell-based, thallium flux, HTS (AID 488969). As to conditions: HEK293 rat mGluR8, GIRK (G protein-gated inwardly rectifying potassium channel) thallium flux, FluoZin2; at 10 µM; stronger effect = higher value; submaximal glutamate (EC20) added with thallium.
Chain of UniProt P70579 (P70579 whole entry, looked up): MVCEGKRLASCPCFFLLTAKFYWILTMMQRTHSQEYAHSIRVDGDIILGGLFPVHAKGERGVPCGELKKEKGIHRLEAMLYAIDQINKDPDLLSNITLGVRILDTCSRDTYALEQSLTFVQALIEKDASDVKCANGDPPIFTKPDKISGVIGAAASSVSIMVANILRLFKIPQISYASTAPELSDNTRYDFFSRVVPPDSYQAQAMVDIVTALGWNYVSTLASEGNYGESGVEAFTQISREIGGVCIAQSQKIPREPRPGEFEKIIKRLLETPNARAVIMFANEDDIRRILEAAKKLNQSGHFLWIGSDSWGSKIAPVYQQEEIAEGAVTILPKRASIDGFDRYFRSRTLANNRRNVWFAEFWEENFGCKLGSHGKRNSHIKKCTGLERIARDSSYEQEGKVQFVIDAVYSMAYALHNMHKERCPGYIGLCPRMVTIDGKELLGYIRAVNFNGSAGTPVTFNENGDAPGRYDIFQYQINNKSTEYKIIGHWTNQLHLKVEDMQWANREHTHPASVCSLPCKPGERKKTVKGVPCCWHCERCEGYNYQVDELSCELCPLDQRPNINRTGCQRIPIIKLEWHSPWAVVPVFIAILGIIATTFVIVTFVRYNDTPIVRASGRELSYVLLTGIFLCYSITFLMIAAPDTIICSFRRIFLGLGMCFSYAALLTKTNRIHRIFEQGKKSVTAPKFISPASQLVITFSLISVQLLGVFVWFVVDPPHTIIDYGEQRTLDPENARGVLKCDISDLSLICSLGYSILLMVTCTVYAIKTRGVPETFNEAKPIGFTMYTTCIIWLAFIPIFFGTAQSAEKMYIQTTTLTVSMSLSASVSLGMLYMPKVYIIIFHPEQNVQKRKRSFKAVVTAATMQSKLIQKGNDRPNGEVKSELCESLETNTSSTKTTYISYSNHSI
`O=C1CSC(=Nc2cc(Cl)ccc2Cl)N1`: the z-score is -1.67. The figure for `COCCCNc1ncnc2sc3c(c12)CCC(C)C3` (stereo not drawn) is -1.23; for `O=c1oc2ccccc2c(NCc2cccc(F)c2)c1[N+](=O)[O-]` it is 0.725. In the case of `CC(=O)Nc1ccc(S(=O)(=O)NCc2ccc(C(=O)NCc3ccc(Cl)cc3)cc2)cc1`, the z-score came to 0.722.

Turning to `CC1Cc2ccccc2N1C(=O)CCNS(=O)(=O)c1cccc2nsnc12` (stereo not drawn), the z-score came out at 0.906. As for `Cc1ccc(-c2csc(SCC(=O)Nc3cc(C)on3)n2)cc1`, the figure is -0.101. `COC(=O)C(Cc1ccc(OC(=O)c2ccc(Cl)cc2)cc1)N1Cc2ccccc2C1=O` (stereo not drawn) had a z-score of -0.764. With `Cc1ccc(OCCn2c(C3CC(=O)N(Cc4ccccc4)C3)nc3ccccc32)cc1` (stereo not drawn), the z-score was -0.217. As for `CCCn1cnc2c(N)c(C)c(C)cc21`, the figure is -2.1. Compound `Cc1noc(C)c1C(=O)Nc1sc2c(c1C(N)=O)CCCCC2` gave a z-score of 0.753. In the case of `O=C(Cn1nc(C(F)F)cc1C(F)F)NNC(=S)Nc1ccc(F)cc1`, the z-score worked out at 0.291.

For the compound `C=CCNC(=O)/C=C/c1ccc(C(C)C)cc1`, the z-score amounted to 0.981. As for `Cn1c(NC(=O)C2c3ccccc3Oc3ccccc32)cc(=O)n(C)c1=O`, the figure is -0.0796; as for `O=C(N/N=C/c1cccc([N+](=O)[O-])c1)C1CC1c1ccccc1` (stereo not drawn), -0.637; as for `COc1ccc(C(=O)OCc2cc3cccc(C)c3[nH]c2=O)cc1`, -0.397. The compound `Cc1sc(NC(=S)NC(=O)c2cccs2)nc1-c1ccc(C(C)C)cc1` came in with a z-score of -0.116. The figure for `Cc1ccc(C)c(OCC(=O)NCCN(C)C)c1` is 0.356; for `COc1ccc(C)cc1S(=O)(=O)N(CC(N)=O)Cc1ccccc1` it is -0.559. Compound `O=C(Nc1cccc(-c2nc3ccccc3s2)c1)C1=COCCO1` gave a z-score of -0.63.

Compound `O=C(O)CCC(=O)N1CCOc2ccc(Cl)cc21` displayed a z-score of -0.411.

Consider `Cc1[nH]oc(=O)c1N=Nc1c(Cl)cccc1Cl`, for which the z-score was -0.151.

On to `C/C(=N\Nc1ccc(C(F)(F)F)cc1[N+](=O)[O-])C(C)C`, for which the z-score is -0.274. The figure for `CC(C)c1ccc(NC(=O)Cn2cccc2C2=NC(c3ccccc3)CO2)cc1` (stereo not drawn) is -0.0808; for `COc1ccc(-n2cnnc2SCC(=O)Nc2cc(C(C)(C)C)nn2-c2ccccc2)cc1` it is -0.0813; for `Cc1ccc(-c2nnc(Sc3nc4ccccc4o3)c3ccccc23)cc1` it is 0.082.

The compound `COc1cccc(CNCCc2c[nH]c3ccccc23)c1OCc1ccccc1` registered a z-score of 1.32. `COc1ccc(C(=O)/C=C/Nc2ccc(S(=O)(=O)Nc3onc(C)c3C)cc2)cc1` showed a z-score of -0.218. Take `O=C(CSC1=Nc2ccccc2C2=NC(CC(=O)NC3CCCCC3)C(=O)N12)NCc1ccco1` (stereo not drawn): the z-score is -0.187. For the compound `CSc1nnc(C)c(=O)n1COC(=O)c1ccc(S(=O)(=O)N2CCCC2)cc1`, the z-score is -0.884.

In the case of `CCOc1ccc(CCNC(=O)CCn2cccc2)cc1OCC`, the z-score is -0.928.

For `COc1cccc2c(=O)n(CC(=O)NC3CCCC3)ccc12`, the z-score is -0.163. `Cc1cccc(C(=O)Nc2onc(C)c2C#N)c1`: the z-score worked out at 0.177. In the case of `CCOc1ccc(N2C(=O)CC(/C=C3/N(C)c4ccccc4C3(C)C)C2=O)cc1` (stereo not drawn), the z-score was -0.165. `CC(C)Cn1c(-c2ccc(Br)o2)n[nH]c1=S` returned a z-score of 1.12.

`CCCCCC(=O)NC(NC(=S)N1CCOCC1)C(Cl)(Cl)Cl` (stereo not drawn) registered a z-score of 0.826.

`O=C(CSc1nnc2ccccn12)NC(=O)NC1CCCCC1` yielded a z-score of -0.1. The figure for `COC(=O)C1=C(C)NC(=O)NC1c1ccccc1` (stereo not drawn) is -0.341.

As for `NC(=O)c1noc(C(=O)N(CC(=O)NC2CCCC2)Cc2ccc3c(c2)OCO3)c1N`, the z-score is -0.521. The figure for `Fc1ccc(CSc2nc3ccccc3[nH]2)cc1` is -0.2; for `CC(=O)NCCOc1cccc2cccnc12` it is 0.331; for `Cc1ccc(N(C(=O)c2ccccn2)C2(C(=O)NC3CCCC3)CCCCC2)cc1` it is -0.136. Turning to `CCN(CC)S(=O)(=O)c1ccc(C(=O)NCc2cccs2)cc1`, the z-score was determined as 0.772. The figure for `C=CCNC(=O)CSc1nnc(-c2ccncc2)n1CCc1ccccc1` is 0.264. As for `CCn1c(SCC(=O)Nc2cc(C)on2)nnc1-c1ccc(S(=O)(=O)N2CCN(C)CC2)cc1`, the figure is -0.132. The figure for `Cc1cc(C)n(C(=O)c2c([N+](=O)[O-])c(C)nn2C)n1` is -0.529.

On to `CCOC(=O)C(C(=O)Nc1cccc(C)c1)C1CCCCC1` (stereo not drawn), for which the z-score worked out at 0.442.

For `Cc1cccc2cc(COC(=O)C3CCCCC3)c(=O)[nH]c12`, the z-score was -0.122. Compound `O=S(=O)(Nc1ccccc1Cl)c1ccc(F)cc1` gave a z-score of 0.00935. Turning to `O=C(/C=C/c1ccccc1Cl)NCCN1CCOCC1`, the z-score was 0.193. As for `O=C(CSc1ccc(Cl)cc1)Nc1ncccn1`, the figure is -0.143; as for `CCCCNC(=O)c1onc(CSc2cccc(Cl)c2)c1C(=O)O`, -0.395; as for `CCC(c1nnnn1CCc1ccccc1)N(Cc1ccco1)Cc1cc2c(C)ccc(C)c2[nH]c1=O` (stereo not drawn), -0.165.

With `COc1c(C(=O)Nc2ccc(Cc3ccncc3)cc2)ccc2ccccc12`, the z-score is -0.24. The figure for `Cn1c(C23CC4CC(CC(C4)C2)C3)n[nH]c1=S` is 0.216. As for `C=CCn1c(SCC(=O)Nc2ncc(Cc3cc(Cl)ccc3Cl)s2)nnc1-c1ccncc1`, the figure is -0.172.

Take `O=C(CSc1ncc(C(F)(F)F)cc1Cl)N1CCN(S(=O)(=O)c2ccccc2)CC1`: the z-score stood at 0.188. Compound `COc1ccc(-n2cccc2C=O)cc1OC` registered a z-score of -0.00678. The figure for `CCNC(=S)N1CCC(c2nc3cc(C)c(C)cc3[nH]2)CC1` is 1.23.

In the case of `Nn1c(SCc2nc3ccccc3[nH]2)nnc1-c1ccccc1`, the z-score was -0.429. As for `COc1cccc(-c2ccc(C#N)c(SCC(=O)NCCc3cccc(Cl)c3)n2)c1`, the figure is -0.032; as for `COc1ccc(CC(=O)NCc2ccc3c(c2)OCO3)cc1`, -0.347; as for `c1ccc(Oc2cccc(OCCCCSc3ncccn3)c2)cc1`, -0.198.

On to `NC(=O)Cn1c(=O)n(C2CCCCC2)c(=O)c2c3c(sc21)CCCCC3`, for which the z-score is -0.267. The figure for `Nc1ccc(Br)c2c1C(=O)c1ccccc1C2=O` is -0.147; for `Cc1nn(CC(=O)O)c(=O)c2ccccc12` it is -0.269. In turn, `CCCn1c(=O)c2ccccc2n2c(SCC(=O)c3ccc(CC)cc3)nnc12` yielded a z-score of -1.96. Compound `O=C1CCN1C1(C(=O)NC2CCCCC2)CCCC1` returned a z-score of -0.104.

Compound `CCOC(=O)C(C(=O)N1CCOCC1)C1CCCCC1` (stereo not drawn) showed a z-score of -0.434. Consider `C=CCNC(=O)c1onc(CSc2ccccc2)c1C(=O)O`, for which the z-score was -0.0618. As for `Cc1cc(C)c(C#N)c(SCC(=O)N2CCN(Cc3ccccc3)CC2)n1`, the figure is -0.392. Regarding `Fc1ccc(/C=N/NC(=S)Nc2ccc(Cl)cc2)cc1F`, the z-score was active: 6.19. In turn, `O=C(Nc1ccc(Cl)cc1F)C1CCN(S(=O)(=O)c2cccnc2)CC1` registered a z-score of -0.223. As for `COCc1cc(C)nc(OCC(=O)N/N=C/c2ccc(-c3cc([N+](=O)[O-])ccc3C)o2)c1C#N`, the figure is -0.115; as for `CCOc1ccc(-n2c(SCC(=O)Nc3cc(C)on3)nnc2-c2c[nH]c3ccccc23)cc1`, -0.0629; as for `C=CCOc1c(OC)cc(Cl)cc1C1NC(=O)NC(C)=C1C(C)=O` (stereo not drawn), -0.132. As for `COCCCNS(=O)(=O)c1ccc2c(c1)CCN2C(C)=O`, the z-score is -0.32. With `Cc1occc1C(=O)NNC(=O)C1CCCCC1`, the z-score was determined as 0.00473. Take `COc1cccc(-c2[nH]nc3c2C(c2ccc(C)o2)C(C#N)=C(N)O3)c1` (stereo not drawn): the z-score was -0.259. As to `CCOC(=O)CN1N=C(c2ccc(Cl)s2)CSC1=O`, the z-score is -0.0627. As for `CCN(CC)c1nc(=S)nc(NC(C)(C)C)[nH]1`, the figure is 0.376; as for `COc1cccc(-c2nnc(SCC(N)=O)n2-c2ccc(Cl)cc2)c1`, -0.328.

`FC(F)(F)c1cc(-c2cccs2)n[nH]1` showed a z-score of -0.152. As for `CC(NC(=O)COc1cc(=O)n(C)c2ccccc12)c1ccc2c(c1)OCCO2` (stereo not drawn), the z-score was -0.783. Regarding `COc1cc(OC)c(C2=NOC(C(=O)NCc3ccc4c(c3)OCO4)C2)cc1Cl` (stereo not drawn), the z-score is -0.603. The figure for `O=C1C(C=NC2CC2)=C(O)c2ccccc21` is 0.377.

In turn, `C=CCn1c(SCc2c(C)noc2C)nc2sc(C)c(C)c2c1=O` returned a z-score of -0.301. For `CCn1c(SCc2ccccc2)nnc1C1CCN(S(=O)(=O)c2ccc(OC)cc2)CC1`, the z-score amounted to 0.613. The figure for `CN(Cc1cccc(Cl)c1Cl)c1ccc(S(=O)(=O)N2CCCCC2)cc1[N+](=O)[O-]` is 0.0394. As for `O=C(NNc1nc(-c2ccccc2)c2cc(Br)ccc2n1)c1ccc(S(=O)(=O)N2CCOCC2)cc1`, the figure is -0.398; as for `O=C(O)C1C2C=CC3(CN(Cc4ccco4)C(=O)C13)O2` (stereo not drawn), 0.079; as for `CCCc1cc(=O)oc2cc3occ(C)c3cc12`, 0.769. In turn, `CCN1CCN(Cc2ccc(NC(=O)Nc3ccccc3)cc2)CC1` came in with a z-score of 0.302. The figure for `Cc1cc2[nH]c(=O)c3ccccc3n2n1` is active: 4.8; for `Cc1ccc(C(=O)N/C(=C\c2ccco2)C(=O)NCCCn2ccnc2)cc1C` it is -0.101; for `CCOC(=O)COc1ccc(C(=O)NC2CCCCC2)cc1` it is 0.891. As for `ClCc1csc(-c2ccc(Cl)cc2)n1`, the figure is -0.215. As for `CCOC(=O)C1CCCN(C(=O)c2c(-c3ccccc3Cl)noc2C)C1` (stereo not drawn), the figure is 0.278; as for `CC(C)NC(=O)NC(=O)COC(=O)c1ccc(F)cc1F`, 0.305. `CC1CCCN(S(=O)(=O)c2ccc(NC(=O)CN3CCN(C)CC3)cc2)C1` (stereo not drawn) registered a z-score of -0.00309. As for `Cc1ccc(NC(=S)NC(=O)c2ccc(-c3ccccc3)cc2)cc1`, the figure is 0.292; as for `O=C(Nc1cc(Cl)cc(Cl)c1)c1cnn2cccnc12`, 0.519. In the case of `CCn1c(SCC(=O)N2CCN(c3ccccc3)CC2)nnc1-c1ccoc1C`, the z-score is -0.305.

In the case of `O=C1C2C(C(=O)N1Cc1cccnc1)C1C=CC2C12CC2` (stereo not drawn), the z-score was -0.142. For `COC(=O)C1C(=O)c2c([nH]c(C(=O)OCCOC(C)C)c2C)CC1C` (stereo not drawn), the z-score was 0.216. For the compound `CC(=O)c1cc2c(=O)c3ccccc3oc2nc1C`, the z-score amounted to 0.0756.

As to `O=C(c1ccc(Cl)s1)N1CCN(c2nc3ccccc3s2)CC1`, the z-score came out at 0.00427. As for `COc1cc(C2Nc3ccccc3C(=O)N2c2ccc3c(c2)OCCO3)ccc1OCC(C)C` (stereo not drawn), the figure is -0.661; as for `CCOc1ccccc1OCC(=O)NCc1ccco1`, 0.0775; as for `Cc1sc2c(c1C)CN(C1CC(C)(C)NC(C)(C)C1)CN2C(=O)c1ccco1`, -0.477. In turn, `COc1ccccc1N1CCN(c2cc(=O)n(-c3ccccc3Cl)c(=O)[nH]2)CC1` displayed a z-score of -0.415. For `Cc1ccc(-n2nnc3c(=O)n(CC(=O)N4CCCC4)cnc32)cc1`, the z-score is -0.284. The figure for `Cc1onc(-c2ccccc2Cl)c1C(=O)Nc1ccc(S(=O)(=O)N2CCCC2)cc1` is -0.528; for `O=C(CN1CCCCCCC1)N/N=C/c1ccc(F)c(F)c1` it is -0.563.
